Test results reported in PMC3541543.
These are yes or no findings as the source states them, for the method shown. For some assays here: Binding seen in cells or lysates may run through a third protein. Some results given as binding are weak or reduced against the parent protein; the word gives no strength. For some assays here: Where a sequence is shown, tags or fusion partners need not be part of it.

Chains of the proteins cited; added tags and fusions are not shown. Lines headed by an entry give the natural chain unless they say otherwise; changes in a name come on top. A line that says so, or that is headed by a name, gives the form on record, which may keep a tag or linker.
UniProt Q9Y2I6: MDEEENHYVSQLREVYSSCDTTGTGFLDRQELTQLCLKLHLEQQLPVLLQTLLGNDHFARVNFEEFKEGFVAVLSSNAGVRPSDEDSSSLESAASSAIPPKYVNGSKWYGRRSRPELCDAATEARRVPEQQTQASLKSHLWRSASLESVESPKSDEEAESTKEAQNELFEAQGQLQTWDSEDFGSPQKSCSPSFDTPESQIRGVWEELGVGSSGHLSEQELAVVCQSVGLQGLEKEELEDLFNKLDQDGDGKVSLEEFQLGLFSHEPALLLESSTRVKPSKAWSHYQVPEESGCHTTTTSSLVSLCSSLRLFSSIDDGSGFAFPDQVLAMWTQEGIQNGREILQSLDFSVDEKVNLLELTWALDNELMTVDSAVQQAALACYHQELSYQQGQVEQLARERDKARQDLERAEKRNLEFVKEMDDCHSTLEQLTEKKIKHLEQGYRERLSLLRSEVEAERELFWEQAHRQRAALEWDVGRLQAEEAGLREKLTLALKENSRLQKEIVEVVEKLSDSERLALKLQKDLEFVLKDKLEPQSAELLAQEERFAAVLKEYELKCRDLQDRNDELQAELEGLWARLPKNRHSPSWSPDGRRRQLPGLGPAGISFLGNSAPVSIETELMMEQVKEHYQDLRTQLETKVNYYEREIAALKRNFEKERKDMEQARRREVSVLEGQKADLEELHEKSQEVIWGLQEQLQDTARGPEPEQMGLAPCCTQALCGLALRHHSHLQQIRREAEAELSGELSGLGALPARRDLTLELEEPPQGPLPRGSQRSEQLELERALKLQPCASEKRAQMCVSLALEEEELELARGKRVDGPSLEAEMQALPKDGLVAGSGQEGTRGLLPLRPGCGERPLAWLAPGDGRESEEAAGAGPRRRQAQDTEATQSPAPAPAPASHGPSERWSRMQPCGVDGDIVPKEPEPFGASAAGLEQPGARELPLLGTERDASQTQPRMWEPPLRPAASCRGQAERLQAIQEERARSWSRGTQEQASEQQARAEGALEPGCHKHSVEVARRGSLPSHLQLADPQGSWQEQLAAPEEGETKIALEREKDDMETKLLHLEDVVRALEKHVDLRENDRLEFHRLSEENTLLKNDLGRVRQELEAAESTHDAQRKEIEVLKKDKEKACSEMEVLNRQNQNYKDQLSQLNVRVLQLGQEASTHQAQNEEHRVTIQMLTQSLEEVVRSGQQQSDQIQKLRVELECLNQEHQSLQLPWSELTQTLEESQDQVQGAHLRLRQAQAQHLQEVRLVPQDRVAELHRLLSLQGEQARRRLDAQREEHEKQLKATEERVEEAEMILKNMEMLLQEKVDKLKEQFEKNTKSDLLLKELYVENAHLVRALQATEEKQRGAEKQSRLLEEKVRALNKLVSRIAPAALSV
Flag-tagged full-length NINL isoform B (Q9Y2I6-2, form named): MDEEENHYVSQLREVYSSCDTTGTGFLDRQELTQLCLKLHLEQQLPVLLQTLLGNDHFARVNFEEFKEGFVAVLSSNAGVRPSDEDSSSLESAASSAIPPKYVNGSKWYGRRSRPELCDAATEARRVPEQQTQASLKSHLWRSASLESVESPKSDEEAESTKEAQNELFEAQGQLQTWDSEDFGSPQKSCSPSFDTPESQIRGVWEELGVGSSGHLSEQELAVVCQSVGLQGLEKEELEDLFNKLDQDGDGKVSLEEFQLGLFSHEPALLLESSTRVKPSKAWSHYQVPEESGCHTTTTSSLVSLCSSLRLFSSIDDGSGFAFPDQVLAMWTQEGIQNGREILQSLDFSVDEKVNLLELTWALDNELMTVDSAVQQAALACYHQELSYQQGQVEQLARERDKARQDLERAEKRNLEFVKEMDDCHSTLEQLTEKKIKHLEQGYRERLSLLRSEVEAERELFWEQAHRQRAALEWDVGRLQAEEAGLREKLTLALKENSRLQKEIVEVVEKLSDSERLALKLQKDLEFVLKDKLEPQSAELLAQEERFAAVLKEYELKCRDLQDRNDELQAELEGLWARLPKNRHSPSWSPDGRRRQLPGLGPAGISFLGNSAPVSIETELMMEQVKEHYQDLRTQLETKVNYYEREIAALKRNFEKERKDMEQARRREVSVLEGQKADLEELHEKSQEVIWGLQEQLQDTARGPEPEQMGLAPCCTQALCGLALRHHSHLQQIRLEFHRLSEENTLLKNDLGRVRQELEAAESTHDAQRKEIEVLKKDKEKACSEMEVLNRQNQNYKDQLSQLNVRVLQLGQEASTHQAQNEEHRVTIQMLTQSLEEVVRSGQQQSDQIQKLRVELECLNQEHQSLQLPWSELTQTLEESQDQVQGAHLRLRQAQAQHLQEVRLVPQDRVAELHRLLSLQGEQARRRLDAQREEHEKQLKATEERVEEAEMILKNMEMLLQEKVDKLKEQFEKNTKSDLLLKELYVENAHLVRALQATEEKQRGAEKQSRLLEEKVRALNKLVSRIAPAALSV
UniProt Q12929: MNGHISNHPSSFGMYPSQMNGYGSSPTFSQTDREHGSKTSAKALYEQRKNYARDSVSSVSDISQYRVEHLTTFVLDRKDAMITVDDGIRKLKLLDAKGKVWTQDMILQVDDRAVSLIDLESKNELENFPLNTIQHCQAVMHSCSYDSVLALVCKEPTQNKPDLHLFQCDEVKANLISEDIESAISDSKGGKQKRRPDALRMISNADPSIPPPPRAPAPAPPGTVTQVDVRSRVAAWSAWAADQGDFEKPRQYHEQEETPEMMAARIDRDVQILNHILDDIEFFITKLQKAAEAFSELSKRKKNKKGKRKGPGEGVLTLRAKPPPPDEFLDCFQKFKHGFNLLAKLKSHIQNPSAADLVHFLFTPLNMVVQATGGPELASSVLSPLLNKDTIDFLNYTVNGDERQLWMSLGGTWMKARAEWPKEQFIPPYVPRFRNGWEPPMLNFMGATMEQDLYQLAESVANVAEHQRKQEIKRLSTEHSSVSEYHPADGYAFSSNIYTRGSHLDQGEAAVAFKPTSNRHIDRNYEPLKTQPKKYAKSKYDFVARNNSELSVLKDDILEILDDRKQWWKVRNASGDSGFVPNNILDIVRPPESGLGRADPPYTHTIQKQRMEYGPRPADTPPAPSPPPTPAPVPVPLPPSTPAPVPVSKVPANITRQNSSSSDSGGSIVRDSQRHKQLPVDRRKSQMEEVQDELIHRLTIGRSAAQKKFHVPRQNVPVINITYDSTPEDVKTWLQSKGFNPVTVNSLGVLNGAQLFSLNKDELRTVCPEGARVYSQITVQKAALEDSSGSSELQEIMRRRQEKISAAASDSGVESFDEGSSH

Key:
[1] = molecular target: T1, SPAG5 fragment aa 973 to 1193, yeast two-hybrid construct (human) (UniProt Q96R06); test: two-hybrid; liquid beta-galactosidase assay in yeast; data not shown
T1 sequence: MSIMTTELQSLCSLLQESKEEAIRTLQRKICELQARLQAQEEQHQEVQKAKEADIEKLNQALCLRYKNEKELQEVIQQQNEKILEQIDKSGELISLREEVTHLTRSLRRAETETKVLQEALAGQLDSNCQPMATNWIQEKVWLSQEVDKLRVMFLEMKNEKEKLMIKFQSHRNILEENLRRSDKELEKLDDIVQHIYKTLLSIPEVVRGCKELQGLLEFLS

[2] = molecular target: T2, GFP-tagged USH2A isoform B intracellular domain (human) (UniProt O75445); test: co-IP; from COS-1 cell lysates; GFP-fused USH2A isoB ICD precipitated with anti-GFP antibody, HA-tagged proteins detected
T2 sequence: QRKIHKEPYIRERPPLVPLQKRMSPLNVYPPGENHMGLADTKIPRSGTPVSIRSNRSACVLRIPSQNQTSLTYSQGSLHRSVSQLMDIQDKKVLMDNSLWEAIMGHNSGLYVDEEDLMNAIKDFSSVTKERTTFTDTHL

[3] = molecular target: T1, SPAG5 fragment aa 973 to 1193, yeast two-hybrid construct (human); test: two-hybrid; liquid beta-galactosidase assay in yeast
HA-tagged MDA5 = molecular target: T3, HA-tagged MDA5 (UniProt Q9BYX4); test: co-IP; Flag-NINL isoB with HA-tagged proteins; cells not named for this experiment
T3 sequence: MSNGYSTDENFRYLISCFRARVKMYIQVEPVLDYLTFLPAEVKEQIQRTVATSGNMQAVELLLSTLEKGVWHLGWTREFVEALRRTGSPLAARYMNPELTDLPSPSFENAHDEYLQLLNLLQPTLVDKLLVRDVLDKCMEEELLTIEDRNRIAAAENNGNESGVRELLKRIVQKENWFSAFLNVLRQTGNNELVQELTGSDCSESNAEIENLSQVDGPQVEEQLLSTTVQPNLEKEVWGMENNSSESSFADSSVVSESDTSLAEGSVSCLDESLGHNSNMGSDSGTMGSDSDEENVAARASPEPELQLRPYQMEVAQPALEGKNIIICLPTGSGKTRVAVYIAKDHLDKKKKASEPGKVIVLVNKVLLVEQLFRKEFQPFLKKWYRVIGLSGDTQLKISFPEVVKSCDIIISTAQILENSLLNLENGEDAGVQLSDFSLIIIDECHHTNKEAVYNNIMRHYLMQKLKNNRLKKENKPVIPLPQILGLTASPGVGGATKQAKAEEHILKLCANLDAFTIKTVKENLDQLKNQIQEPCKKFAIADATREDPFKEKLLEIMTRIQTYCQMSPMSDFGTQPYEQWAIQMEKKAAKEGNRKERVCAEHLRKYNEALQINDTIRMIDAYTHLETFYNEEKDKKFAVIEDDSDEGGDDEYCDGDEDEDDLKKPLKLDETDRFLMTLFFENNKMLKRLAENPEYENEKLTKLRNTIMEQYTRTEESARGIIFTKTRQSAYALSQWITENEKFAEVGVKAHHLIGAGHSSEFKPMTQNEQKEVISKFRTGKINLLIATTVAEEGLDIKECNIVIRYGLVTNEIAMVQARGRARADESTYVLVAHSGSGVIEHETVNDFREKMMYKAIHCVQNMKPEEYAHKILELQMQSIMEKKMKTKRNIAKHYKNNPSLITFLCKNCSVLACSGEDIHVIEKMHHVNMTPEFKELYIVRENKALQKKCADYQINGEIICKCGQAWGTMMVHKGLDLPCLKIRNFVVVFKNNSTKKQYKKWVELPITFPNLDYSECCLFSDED

[4] = molecular target: T4, HA-tagged USH2A isoform B intracellular domain (human) (UniProt O75445); test: as above
T4 sequence: T2 sequence

[5] = molecular target: T5, HA-tagged full-length SPAG5 (human) (UniProt Q96R06); test: as above
T5 sequence: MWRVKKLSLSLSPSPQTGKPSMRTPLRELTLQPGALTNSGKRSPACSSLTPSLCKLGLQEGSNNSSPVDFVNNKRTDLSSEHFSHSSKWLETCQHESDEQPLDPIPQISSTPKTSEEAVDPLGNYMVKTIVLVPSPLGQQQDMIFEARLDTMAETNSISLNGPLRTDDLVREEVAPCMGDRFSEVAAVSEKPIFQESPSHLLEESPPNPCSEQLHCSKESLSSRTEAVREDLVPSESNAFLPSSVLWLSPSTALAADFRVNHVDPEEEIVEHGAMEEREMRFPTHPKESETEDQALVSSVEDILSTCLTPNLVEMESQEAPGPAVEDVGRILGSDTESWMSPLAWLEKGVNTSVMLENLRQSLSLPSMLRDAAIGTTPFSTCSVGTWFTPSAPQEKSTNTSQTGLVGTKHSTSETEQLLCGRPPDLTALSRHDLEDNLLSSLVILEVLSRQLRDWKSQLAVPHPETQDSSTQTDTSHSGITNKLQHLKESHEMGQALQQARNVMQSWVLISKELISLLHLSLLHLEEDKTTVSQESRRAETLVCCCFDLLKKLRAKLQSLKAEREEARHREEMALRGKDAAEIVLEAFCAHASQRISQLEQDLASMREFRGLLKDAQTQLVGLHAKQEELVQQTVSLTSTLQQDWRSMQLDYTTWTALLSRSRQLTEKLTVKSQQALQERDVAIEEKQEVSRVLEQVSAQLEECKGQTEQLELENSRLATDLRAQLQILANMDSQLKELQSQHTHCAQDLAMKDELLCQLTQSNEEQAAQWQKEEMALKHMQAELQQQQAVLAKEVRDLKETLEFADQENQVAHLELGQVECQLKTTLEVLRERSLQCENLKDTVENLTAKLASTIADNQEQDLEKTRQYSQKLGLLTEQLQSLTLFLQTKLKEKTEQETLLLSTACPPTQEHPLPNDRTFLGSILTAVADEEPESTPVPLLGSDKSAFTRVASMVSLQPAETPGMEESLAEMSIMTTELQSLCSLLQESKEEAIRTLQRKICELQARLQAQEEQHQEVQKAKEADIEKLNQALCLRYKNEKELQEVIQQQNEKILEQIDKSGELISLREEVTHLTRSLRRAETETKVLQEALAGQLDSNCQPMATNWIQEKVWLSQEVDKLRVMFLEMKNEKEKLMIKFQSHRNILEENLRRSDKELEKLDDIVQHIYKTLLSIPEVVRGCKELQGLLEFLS

[6] = molecular target: T6, GST-fused SPAG5 aa 973 to 1193 (human) (UniProt Q96R06); test: pull-down; GST fusion protein from E. coli as bait; Flag-tagged protein from COS-1 cell lysate; detected by anti-Flag antibody; only the target purified
T6 sequence: T1 sequence

Q: For “full-length NINL isoform A, yeast two-hybrid construct (from UniProt Q9Y2I6 1-1382)”, which binding [1] is on record?
A: The binding was “binds”.

Q: Which binding [2] does the source give for “HA-tagged EPS8 (from UniProt Q12929 1-822)” here?
A: Its binding is “no binding”.

Q: “full-length NINL isoform B, yeast two-hybrid construct (from UniProt Q9Y2I6-2 1-1033)” was tested. Which binding [3] did it give?
A: Its binding is “binds”.

Q: Which binding (HA-tagged MDA5) does the source give for “Flag-tagged full-length NINL isoform B (from UniProt Q9Y2I6-2 1-1033)” here?
A: The binding was “no binding”.

Q: What about the binding [4] of the same substance?
A: Its binding is “binds”.

Q: And the binding [5]?
A: Its binding is “binds”.

Q: And the binding [6]?
A: Its binding is “binds”.

Q: With “NINL isoform B predicted intermediate filament domain (aa 656 to 925), yeast two-hybrid construct (from UniProt Q9Y2I6-2 656-925) (domain or fragment)” as the substance, how does the binding [3] read?
A: The binding was “binds”.
